Measurements: PubChem BioAssay (NCI)
Where “and” joins values, the source holds several entries; their conditions need not be identical. Identical values can stand only once.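 Five concentrations, 48 hours, 96-well plates. Here, GI50 denotes the concentration required for 50% inhibition of growth. TGI marks complete inhibition of growth.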

Tested on: NCI-H322M lung
Assay: NCI anticancer screen, dose series, 48 h

For `CC(=NC1CCCCC1)c1ccccc1O`, which TGI is on record?
Its TGI is greater than 100 µM.

`CN=C(NN)NS(=O)(=O)c1cc(C)c(Cl)cc1S` was tested. Which TGI did it give?
The TGI was greater than 100 µM.

With `CC(C)(C)OC(=O)Nc1nnc(S(N)(=O)=O)s1` as the compound, how does the TGI read?
Its TGI is greater than 100 µM.

Which GI50 does the source give for `O=C1c2ccccc2C(=O)c2c(N=Nc3[nH]c(=S)[nH]c3O)cccc21` here?
The GI50 was 1.18 µM.

What about the TGI of the same compound?
The TGI was greater than 100 µM.

With `COc1ccc2nc3cc(Cl)ccc3c(NCCCCCN3CCCCC3)c2c1` as the compound, how does the GI50 read?
The GI50 was 0.082 µM.

What about the TGI of the same compound?
The TGI was 3.32 µM.

For `CCCCC#COS(=O)(=O)c1ccc(C)cc1`, which TGI is on record?
The TGI was greater than 100 µM.

`CN(C)c1ccc(/C=C/c2ccc3ccccc3[n+]2C)cc1` was tested. Which TGI did it give?
Its TGI is greater than 100 µM.

With `CN1CCN(CC(=O)Nc2cccc3ccccc23)CC1` as the compound, how does the TGI read?
The TGI was greater than 100 µM.

Which TGI does the source give for `Cn1cnc([N+](=O)[O-])c1[Se]c1ncnc2nc[nH]c12` here?
The TGI was 50 µM.

With `O=C(N=C1N(c2ccccc2)C(=O)C(=O)N1c1ccccc1)c1ccccc1` as the compound, how does the TGI read?
Its TGI is 44.3 µM.

For `CN(C(=O)c1ccccc1)C1CCCC(=O)CC1` (stereo unspecified), which TGI is on record?
Its TGI is greater than 100 µM.

With `CC(=O)SSC1(Cl)C(C)(C)C(Cl)(SSC(C)=O)C1(C)C` (stereo unspecified) as the compound, how does the TGI read?
Its TGI is greater than 100 µM.

How did the TGI turn out when `Cc1ccc(/C=C2\N=C(N3CCOCC3)NC2=O)cc1` was run?
The TGI was greater than 100 µM.

With `Cc1cc(C)c(OC(=O)Nc2cccc3ccccc23)c(-c2ccccc2)c1` as the compound, how does the TGI read?
Its TGI is greater than 100 µM.

`OC1CC2CCCN(CCc3c1[nH]c1ccccc31)C2` (stereo unspecified) was tested. Which TGI did it give?
Its TGI is greater than 100 µM.

With `Cc1cccc(C)c1NC(=O)CCC(=O)CC(=O)C(C)C` as the compound, how does the TGI read?
Its TGI is greater than 100 µM.

`CCC1=C(c2ccc(OC)cc2)CC[C@@]2(CCNC2=O)[C@@H]1C` was tested. Which TGI did it give?
Its TGI is greater than 100 µM.

How did the GI50 turn out when `Cc1c(C(=O)O)n(-c2ccc(Cl)cc2)c2ncnc(N)c12` was run?
The GI50 was 24.2 µM.

And the TGI?
The TGI was 76.8 µM.

What does the source list for `COc1ccc(/C=C/C(=O)c2cccc(B(O)O)c2)cc1O`?
GI50: 10.3 µM; TGI: 24.6 µM

How did the TGI turn out when `COc1c2c(cc3nc4ccccc4nc13)CC[C@H](NC(C)=O)c1cc(=O)c(SC)ccc1-2` was run?
Its TGI is greater than 100 µM.

How did the TGI turn out when `NC(CSS(=O)(=O)c1ccccc1)C(=O)O` (stereo unspecified) was run?
The TGI was greater than 10 µM.

`C=C(C)C(=O)OC1CC2(C)OC(=CC2=O)C(C)CC2OC(=O)C(=C)C12` (stereo unspecified) was tested. Which TGI did it give?
The TGI was greater than 57.2 µM.

Which GI50 does the source give for `CCN(CC)CCOc1ccc(/C=C2\CC3C4CC=C5C[C@@H](N6CCCC6)CC[C@]5(C)C4CC[C@]3(C)[C@H]2OC(C)=O)cc1OC` (stereo partly specified) here?
The GI50 was 0.861 µM.

What about the TGI of the same compound?
Its TGI is 2.47 µM.

`Cc1cc(Nc2cccc(F)c2)nc(NCc2ccccc2)n1` was tested. Which GI50 did it give?
Its GI50 is 12.2 µM.

And the TGI?
The TGI was 24.7 µM.

`O=C1CCC(O)=C1N=Nc1cc(Cl)cc(Cl)c1` was tested. Which TGI did it give?
The TGI was greater than 100 µM.

`CC(=O)c1c(P(=O)(OC(C)C)OC(C)C)nn(-c2ccc([N+](=O)[O-])cc2)c1C` was tested. Which TGI did it give?
Its TGI is greater than 100 µM.

For `O=C(N/N=C\c1c(O)ccc2ccccc12)C1CC1`, which GI50 is on record?
Its GI50 is 3.46 µM.

And the TGI?
Its TGI is 65.1 µM.

What does the source list for `Cc1ccc(C2=C(c3ccc(C)cc3)C3(c4ccc(C)cc4)[C@@H](C#N)[C@H](C#N)C2(c2ccc(C)cc2)S3=O)cc1` (stereo partly specified)?
GI50: > 100 µM; TGI: > 100 µM

How did the TGI turn out when `Cn1c(=O)cc(NNc2ccccc2)[nH]c1=O` was run?
The TGI was greater than 100 µM.

`N#CC1(C#N)C2=C(CCCC2)NC(c2ccc(Br)cc2)C1(C#N)C#N` (stereo unspecified) was tested. Which TGI did it give?
The TGI was 37.1 µM.

How did the TGI turn out when `CC(C)C(=O)N1C(=O)O[C@@H](c2ccccc2)[C@H]1C` was run?
The TGI was greater than 100 µM.

With `Oc1ccc(N=Cc2ccc(C=Nc3ccc(O)cc3)cc2)cc1` as the compound, how does the TGI read?
Its TGI is 30 µM.

With `C[C@@]1(CO)[C@H](O)CC[C@@]2(C)[C@H]1CC[C@H]1C[C@@H]3C[C@@]12CC[C@@]3(O)COC(=O)CN` as the compound, how does the GI50 read?
Its GI50 is > 500 µM and 102 µM.

And the TGI?
Its TGI is > 500 µM and 234 µM.

With `COc1ccc(NC(=O)C2C(=O)N(c3ccc(OC)cc3)C(=O)/C2=N\N)cc1` (stereo unspecified) as the compound, how does the TGI read?
The TGI was greater than 100 µM.

With `CC(C)NCC(O)c1cc(OCc2ccccc2)c(OCc2ccccc2)cc1NC(=O)CCC(=O)O` (stereo unspecified) as the compound, how does the TGI read?
The TGI was 28.6 µM.

Which TGI does the source give for `CCOP(=O)(OCC)/C(C#N)=C/c1cnc(C)[nH]1` here?
Its TGI is greater than 100 µM.

How did the GI50 turn out when `COC(=O)C(N)CSC(c1ccccc1)(c1ccccc1)c1ccccc1` (stereo unspecified) was run?
The GI50 was 0.695 µM.

And the TGI?
The TGI was greater than 100 µM.

`COc1ccc2c(c1)C(=O)c1c-2n(CCCNCCO)c(=O)c2ccccc12` was tested. Which GI50 did it give?
The GI50 was 0.309 µM.

And the TGI?
Its TGI is 2.33 µM.

For `Cc1nn2c(C(=O)N/N=C/c3ccccc3O)c(C)nc2s1`, which TGI is on record?
Its TGI is greater than 100 µM.

`NC(=O)C1(c2ccccc2)Nc2ccccc2S1` (stereo unspecified) was tested. Which TGI did it give?
Its TGI is greater than 100 µM.

Which TGI does the source give for `CN(C)CCCN1c2ccccc2CCc2cccc([N+](=O)[O-])c21` here?
Its TGI is 63.8 µM.

`FC(F)(F)C1(Cl)C(Cl)(c2ccccc2)C1(Cl)c1ccccc1` (stereo unspecified) was tested. Which TGI did it give?
The TGI was 31.3 µM.

`O=C(C[Si](CC(=O)c1cccc(C(F)(F)F)c1)CC(=O)c1cccc(C(F)(F)F)c1)c1cccc(C(F)(F)F)c1` was tested. Which GI50 did it give?
Its GI50 is 4.09 µM.

And the TGI?
Its TGI is 15.6 µM.

For `O=C(/C=C1\C[C@H]2C=Nc3ccccc3C(=O)N2C1)NCCCNC(=O)/C=C1\C[C@H]2C=Nc3ccccc3C(=O)N2C1`, which TGI is on record?
Its TGI is 31.1 µM.

With `C/C=N\n1c(C)n[nH]c1=O` as the compound, how does the TGI read?
The TGI was greater than 100 µM.

Which TGI does the source give for `Nc1nc2c(ncn2CC2CCC(CO)C2)c(=O)[nH]1` (stereo unspecified) here?
Its TGI is greater than 100 µM.

For `FC(F)(F)c1cccc(Nc2nc3ccccc3nc2Nc2cccc(C(F)(F)F)c2)c1`, which GI50 is on record?
The GI50 was 3.04 µM.

And the TGI?
The TGI was 14.3 µM.

For `COc1cccc(NC(=O)CC(=O)N2NC(c3ccccc3)C(N=Nc3cccc(C(=O)O)c3)C2=O)c1` (stereo unspecified), which TGI is on record?
Its TGI is greater than 100 µM.
